From PubChem BioAssay AID493208 (National Center for Advancing Translational Sciences (NCATS), 2011)
In all, about 44,000 compounds went through this assay and about 340 (0.77%) were called active. Inconclusive results (about 5%) are left out. The call rests on the fitted dose curve; in most records, active means well fitted inhibition curve with a large enough effect; inconclusive means small, poorly fitted or top-dose-only effect; inactive means flat fitted curve, though single readings scatter. This is one part of the list.

test: Acumen qHTS Assay for Inhibitors of the mTORC1 Signaling Pathway in MEF (Tsc2-/-, p53-/-) Cells: Sytravon; settings: phospho-rpS6 immunofluorescence/PI, 24 h; series mostly up to 38.3 µM; activity change, negative = inhibition: at the top concentration;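 further: plate controls were DMSO for no effect and rapamycin for full effect; nearly all actives have a fitted effect of over 50% in size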
Outline: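 Plate MEFs (Tsc2-/-, p53-/-, empty vector) in DMEM/10% FBS; after 24 h add compound, incubate 24 h at 37 degree Celsius; fix in PFA/TX-100, block, stain phospho-rpS6 and 10 uM PI; scan at 488 nm; report % positive cells.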

Activity change, negative = inhibition, inactive:
COc1ccc(NC(=O)CSc2nc3c(c(=O)[nH]2)CCC3)cc1 0.515%
CC(C)c1ccccc1Oc1c(C(F)(F)F)oc2c(CN3CCN(C)CC3)c(O)ccc2c1=O -3.12%
Brc1ccc(CN2CCc3nc(N4CCN(c5ncccn5)CC4)ncc3C2)cc1 6.63%
O=C(Cn1c(=O)n(CCc2ccccc2)c(=O)c2c3c(sc21)CCCC3)Nc1ccc(F)c(F)c1 -1.8%
CCCc1nnc(NC(=O)Cc2coc3ccc(C)cc23)s1 3.4%
CCOc1ccccc1Nc1sc(C(=O)c2ccc(Cl)cc2)c(N)c1C(=O)NCCc1ccccc1 -0.889%
Cc1ccccc1NC(=O)CSc1nc2ccccc2c2nc(CCn3c(C)nc4ccccc43)nn12 -8.58%
Cc1ccc(CNC(=O)c2cn(C)c3ccc(S(=O)(=O)N4CCOCC4)cc3c2=O)cc1 -5.01%
COc1ccccc1N1CCN(C(=O)c2cc3c(=O)oc4ccc(C)cc4c3s2)CC1 -4.18%
CCOc1ccc(-c2nc(CNC(=O)Nc3ccccc3)c(C)o2)cc1 0%
COc1ccc(OC)c(S(=O)(=O)Nc2cccc(-c3ccc(N4CCCCCC4)nn3)c2)c1 0.815%
COc1ccc(NCc2cc3ccc(OC)cc3n(CC(=O)Nc3cccc(OC)c3)c2=O)cc1 -9.89%
COc1cc(NC(=O)c2nn(-c3ccc(F)cc3)c(=O)n(C)c2=O)cc(OC)c1OC -7.96%
CCn1c(C(=O)N2CCC(C(=O)NCCCOC)CC2)cc2sccc21 -6.45%
O=C(COCc1cc(-c2cccs2)on1)NCc1cccc(Cl)c1 -5.9%
Cc1cc(C)c(/C=C/c2onc(C)c2S(=O)(=O)N2CCC(C(=O)Nc3ccc(Cl)cc3C)CC2)c(C)c1 1.23%
Cc1ccccc1NC(=O)c1c(NC(=O)C(F)(F)F)sc2c1CCCCC2 7.12%
Cc1cn(S(=O)(=O)c2ccc(F)c(Cl)c2)cn1 5.08%
CC1=C(c2ccc(C)cc2)S(=O)(=O)N(Cc2ccc(C(=O)NCc3ccccc3F)cc2)C1=O -5.32%
Cc1ccc(C(=O)c2sc(Nc3ccc(F)cc3)nc2N)c(C)c1 -10.1%
CC(=O)c1ccc(NC(=O)Cn2c(=O)oc3cc(S(=O)(=O)N4CCCCC4)ccc32)cc1 2.94%
Cc1ccc2c(c1)C(C)(c1ccccc1)CC(C)(C)N2C(=O)c1ccc(F)cc1 (stereo unspecified) -4.17%
COc1ccc(-c2nc(CNC(=O)NC3CCCCC3)c(C)o2)c(OC)c1 0%
O=C1CCCc2[nH]c(=O)c(-c3nc(-c4cccc([N+](=O)[O-])c4)cs3)cc21 -1.05%
O=C(CCCn1c(=O)[nH]c2ccccc2c1=O)N1CCN(c2ccccc2)CC1 -6.97%
CCOC(=O)c1cc2c(=O)n3ccccc3nc2n(Cc2ccco2)c1=NC(=O)c1ccc(F)cc1 2.05%
